Test results reported in article PMC4336329 (PLoS ONE, 2015).
The whole screen tested about 310,000 compounds, of which about 14,000 (4.5%) showed an effect of 50% or more. Effects have a minus sign here. The list shows a part of the results.

target: human ether-à-go-go-related gene (hERG) potassium channel (human, UniProt Q12809); test: primary screen, population patch clamp on CHO cells stably expressing hERG
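Note: peak tail current of the secondary pulse compared with the same well before compound.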

human ether-à-go-go-related gene (hERG) potassium channel, sequence (Q12809 whole entry, looked up): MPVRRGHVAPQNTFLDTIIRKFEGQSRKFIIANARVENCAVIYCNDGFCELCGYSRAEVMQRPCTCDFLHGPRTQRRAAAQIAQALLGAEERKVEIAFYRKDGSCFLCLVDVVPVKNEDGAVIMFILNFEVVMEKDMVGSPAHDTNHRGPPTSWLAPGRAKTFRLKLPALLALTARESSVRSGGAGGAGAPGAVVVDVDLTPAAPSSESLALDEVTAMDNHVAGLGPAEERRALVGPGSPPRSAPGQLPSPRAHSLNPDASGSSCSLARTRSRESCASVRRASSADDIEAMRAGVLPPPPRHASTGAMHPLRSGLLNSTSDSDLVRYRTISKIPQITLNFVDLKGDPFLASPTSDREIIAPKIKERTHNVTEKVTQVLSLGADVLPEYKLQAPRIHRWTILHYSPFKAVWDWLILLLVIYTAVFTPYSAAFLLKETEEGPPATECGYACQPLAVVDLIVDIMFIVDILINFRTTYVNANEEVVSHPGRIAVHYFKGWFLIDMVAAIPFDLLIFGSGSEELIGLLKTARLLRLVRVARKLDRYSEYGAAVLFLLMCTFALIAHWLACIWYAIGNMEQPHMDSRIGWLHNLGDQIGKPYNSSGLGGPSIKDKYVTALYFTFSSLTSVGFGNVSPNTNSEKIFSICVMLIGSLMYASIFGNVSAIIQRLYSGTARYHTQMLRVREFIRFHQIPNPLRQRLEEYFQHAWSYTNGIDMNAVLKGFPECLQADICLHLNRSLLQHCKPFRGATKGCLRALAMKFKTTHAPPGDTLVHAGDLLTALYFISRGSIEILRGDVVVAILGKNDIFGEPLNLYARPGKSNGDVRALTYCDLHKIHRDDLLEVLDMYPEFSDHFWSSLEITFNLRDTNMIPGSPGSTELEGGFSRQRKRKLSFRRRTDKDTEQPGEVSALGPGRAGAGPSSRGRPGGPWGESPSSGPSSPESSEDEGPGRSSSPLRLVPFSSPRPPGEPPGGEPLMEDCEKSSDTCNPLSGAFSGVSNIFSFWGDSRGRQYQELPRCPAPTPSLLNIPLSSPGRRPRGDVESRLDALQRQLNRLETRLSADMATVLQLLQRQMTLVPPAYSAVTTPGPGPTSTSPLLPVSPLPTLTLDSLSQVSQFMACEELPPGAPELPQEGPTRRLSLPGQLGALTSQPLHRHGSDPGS

In order of rising “hERG current change (%, negative = inhibition) at 10uM” value:
1. CC(C)c1csc(CN2CCN(CCc3ccccc3)C(CCO)C2)n1 (centres unmarked)  -76%
2. CCCCN(CC)C(=O)Cn1ncc2c3ccccc3n(CCC)c2c1=O  -46.4%
3. COc1ccc2c(c1)c(C(=O)N1CCN(C)CC1)c(C)n2-c1ccccc1  -44%
4. CCC(=O)N1CCN=C1SCc1cccc(C(F)(F)F)c1  -33.5%
5. CCOC(=O)c1c(C)[nH]c(C)c1C(=O)COC(=O)c1ccc([N+](=O)[O-])s1  -28.1%
6. CCOC(=O)c1ccc2c(c1)n(CCCS(=O)(=O)[O-])c(/C=C/c1ccc(Cl)cc1)[n+]2CC  -23.1%
7. Cc1ccccc1NC(=S)N1CCC(NC(=O)c2ccco2)CC1  -19.7%
8. COc1ccc(CC(=O)Nc2nc(C)cs2)cc1OC  -17.4%
9. CC1(C)NC(=O)N(CC(=O)OCC(=O)Nc2cc(S(=O)(=O)N3CCCCCC3)ccc2Cl)C1=O  -17.3%
10. O=C1CC(c2ccccc2)Cc2nc(NCc3ccco3)ncc21 (centres unmarked)  -17.3%
11. COc1cc2nc(N(C)C)nc(N)c2cc1OC.Cl  -16%
12. CCOC(=O)CCC(NC(=O)CCCCCCCCC(=O)NC(CCC(=O)OCC)C(=O)OCC)C(=O)OCC (centres unmarked)  -14.7%
13. COc1ccc(CN2CCN(c3ccccc3)CC2)c(C)c1C  -13.8%
14. O=C(c1ccc(S(=O)(=O)N2CCCC2)cc1)N(Cc1ccco1)C1CCS(=O)(=O)C1 (centres unmarked)  -10.3%
15. O=C1N(Cc2cccnc2)C[C@@H]2C[C@@H](c3cccc(C(F)(F)F)c3)N3CCC[C@@]123  -10.3%
16. Cc1ccc2[nH]c3c(=O)n(CCc4cnc[nH]4)cnc3c2c1  -9.8%
17. Cc1ccc(S(=O)(=O)N2CCN(C(=O)c3ccccc3OCc3c(C)noc3C)CC2)cc1  -9.72%
18. C#CCOCCOCCOCCNc1nc(N2CCN(C(=O)[C@H](CCC(=O)O)n3cc(C(N)CC(C)C)nn3)CC2)nc(N2CCN(C(=O)[C@H](Cc3ccc(O)cc3)n3cc(C(N)[C@H](C)CC)nn3)CC2)n1.Cl (some centres unmarked)  -8.37%
19. O=C(Cc1cccs1)N/N=C/c1ccccn1  -7.62%
20. CN(Cc1ccco1)c1ncnc2ccc(-c3ccoc3)cc12  -7.12%
21. COCC1CCN(C(=O)C2CCC(=O)N(Cc3cccc(F)c3)C2)CC1 (centres unmarked)  -6.81%
22. N/C(CSc1ccccn1)=N\OCc1c(Cl)cccc1Cl  -5.24%
23. O=C(NCC1CCCO1)c1cccc(Br)c1 (centres unmarked)  -4.16%
24. COc1cccc(NC(=O)C(NCC2CCCCC2)c2ccccc2)c1.O=C(O)C(=O)O (centres unmarked)  -3.83%
25. COc1ccccc1NC(=O)c1ccc(NC(=O)c2ccc(=O)[nH]c2)cc1  -3.72%
26. COCCCN1C(=O)c2ccccc2C1C(=O)NC1CCCCCC1 (centres unmarked)  -2.83%
27. COc1cc(NC(=S)NC2CC2)c(OC)cc1Cl  -1.86%
28. O=C(O)c1cc(Br)ccc1NN=C1CCCCC1  -1.51%
29. CC(=O)Nc1ccc(NC(=O)[C@@H](NC(=O)N2C[C@H]3C[C@@H](C2)c2cccc(=O)n2C3)C(C)C)cc1  -0.378%
30. Cc1cc(C)nc(SC(C)CNS(=O)(=O)c2ccccc2)n1 (centres unmarked)  0.485%
31. CC(C)c1ccc(C2CC(=O)c3cnc(N4CCc5ccccc5C4)nc3C2)cc1 (centres unmarked)  0.754%
32. O=C(NCc1cccnc1)NC(C(F)(F)F)C(F)(F)F  1.24%
33. CCCCn1c(N)c(N(Cc2ccccc2OC)C(=O)COc2ccccc2OC)c(=O)[nH]c1=O  3.21%
34. O=C(c1cccc(S(=O)(=O)Nc2ccc(F)cc2)c1)N1CCC1  4.11%
35. O=S(=O)(NCc1nnc2ccccn12)c1ccc(Cl)cc1  5.97%
36. CCN1CCN(C(=S)Nc2ccsc2C(=O)OC)CC1  6.04%
37. Cc1ccc(NC(=O)COC(=O)c2ccc3c(c2)OCCO3)cc1S(=O)(=O)N1CCOCC1  6.16%
38. Cl.O=C(OCCN1CCOCC1)c1ccc(OCCN2CCOCC2)cc1  6.18%
39. CCOc1ccccc1NC(=O)c1ccc(CN2CCc3ccccc3C2)cc1  6.53%
40. CCNC(=O)C1CCCN1C(=O)C(CCCN=C(N)N)NC(=O)C(CC(C)C)NC(=O)C(Cc1cn(Cc2ccccc2)cn1)NC(=O)C(Cc1ccc(O)cc1)NC(=O)C(CO)NC(=O)C(Cc1c[nH]c2ccccc12)NC(=O)C(Cc1cnc[nH]1)NC(=O)C1CCC(=O)N1 (centres unmarked)  6.74%
41. CCNC(=S)Nc1ccc(Oc2ccccc2)cc1  7.36%
42. Cc1ccc2nc(-c3cccc(Br)c3)cc(C(=O)NCC3CCCO3)c2c1 (centres unmarked)  8.66%
43. O=C(NCCNC(=O)c1ccco1)c1cccc(F)c1  9.02%
44. O=C(NCc1ccccc1F)C(=O)NCC1OCCCN1S(=O)(=O)c1cccs1 (centres unmarked)  9.19%
45. Nc1ccc2nc(-c3ccccn3)[nH]c2c1  9.21%
46. CCC(Oc1ccccc1)C(=O)N(C)CC(=O)N(CC(C)C)c1c(N)n(CC(C)C)c(=O)[nH]c1=O (centres unmarked)  10.2%
47. COC(=O)c1c(C(=O)OC)c(-c2ccccc2)n2c1CS(=O)C2 (centres unmarked)  11%
48. COc1ccccc1Nc1nc(NCCC(C)C)nc(N)c1[N+](=O)[O-]  11.5%
49. C/C(=N\N=C1\NC(=O)C(CC(=O)Nc2ccc(C)c(Cl)c2)S1)C(C)C (centres unmarked)  12.2%
50. c1csc(-c2nc(CN3CCSCC3)cs2)c1  14.2%
51. CNC(=S)N/N=C/c1c2ccccc2c(Cl)c2ccccc12  18%
52. CCOc1ccc(NC(=O)CN(C)C(=O)CN2C(=O)C3CCCCC3C2=O)cc1OCC (centres unmarked)  19.6%
53. COc1cccc(C(=O)O/N=C2\CCS(=O)(=O)c3sccc32)c1  39.6%
